Experimental data from PMC11995724, “Antibiotic target discovery by integrated phenotypic and activity-based profiling of electrophilic fragments” (Cell chemical biology, 2025).
The whole screen tested about 3,200 compounds, of which about 110 (3.4%) showed an effect of 50% or more. The list shows a part of the results.

These compounds were tested on T1, V. cholerae SAD30. Details: relative growth, OD600, LB; 25 µM; inhibitor.
T1 construct: SAD30
Parameters: species or system S. aureus MSSA476 (TSB) or V. cholerae SAD30 (LB); 384-well bacterial growth screen at 25 uM, OD600 relative to DMSO control

Compound | % of control remaining [%]
CC(=O)NCc1ccc(C2CCCN2C(=O)CCl)o1 (stereo not shown) [5-P13, N-({5-[1-(2-chloroacetyl)pyrrolidin-2-yl]furan-2-yl}methyl)acetamide] | 100.368
C=CC(=O)Nc1cccc(-c2cn(C)nn2)c1 [1-K14, N-[3-(1-methyl-1H-1,2,3-triazol-4-yl)phenyl]prop-2-enamide] | 83.4081
CCOC(=O)c1c(NC(=O)CCl)sc(C)c1C [4-O15, ethyl 2-(2-chloroacetamido)-4,5-dimethylthiophene-3-carboxylate] | 102.998
C=CC(=O)N1CCN(S(C)(=O)=O)[C@H](C)C1 [1-G15, 1-[(3R)-4-methanesulfonyl-3-methylpiperazin-1-yl]prop-2-en-1-one] | 91.4798
N#CC(=Cc1ccccc1)C(=O)Nc1ccc(N2CCCCC2)cc1 [8-E15, 2-cyano-3-phenyl-N-[4-(piperidin-1-yl)phenyl]prop-2-enamide] | 71.7199
O=C(CCl)NCCC1=CCCCC1 [4-H05, 2-chloro-N-[2-(cyclohex-1-en-1-yl)ethyl]acetamide] | 111.451
CC(NC(=O)C(C#N)=Cc1ccco1)c1cccc(-n2cccn2)c1 (stereo not shown) [9-J04, 2-cyano-3-(furan-2-yl)-N-{1-[3-(1H-pyrazol-1-yl)phenyl]ethyl}prop-2-enamide] | 81.5092
CC(Cl)C(=O)N1CCC(n2nnc3c2CCCC3)CC1 (stereo not shown) [7-H17, 2-chloro-1-[4-(4,5,6,7-tetrahydro-1H-1,2,3-benzotriazol-1-yl)piperidin-1-yl]propan-1-one] | 75.4667
N#CC(=Cc1c(F)cccc1F)C(=O)Nc1ccccc1Cl [9-I20, N-(2-chlorophenyl)-2-cyano-3-(2,6-difluorophenyl)prop-2-enamide] | 88.3073
C=CC(=O)N1CCOC(c2nc(C)cs2)C1 (stereo not shown) [3-A17, 1-[2-(4-methyl-1,3-thiazol-2-yl)morpholin-4-yl]prop-2-en-1-one] | 114.144
CC(Cl)C(=O)NC1CCCc2ccccc21 (stereo not shown) [5-M19, 2-chloro-N-(1,2,3,4-tetrahydronaphthalen-1-yl)propanamide] | 88.2631
CC1CC(C(=O)CCl)CO1 (stereo not shown) [10-M13, 2-chloro-1-(5-methyloxolan-3-yl)ethan-1-one] | 117.514
CC(Cl)C(=O)Nc1ccc(Cl)c(C(F)(F)F)c1 (stereo not shown) [4-C12, 2-chloro-N-[4-chloro-3-(trifluoromethyl)phenyl]propanamide] | 57.796
C=CC(=O)N1CCC(n2cc(CO)nn2)C1 (stereo not shown) [2-E08, 1-{3-[4-(hydroxymethyl)-1H-1,2,3-triazol-1-yl]pyrrolidin-1-yl}prop-2-en-1-one] | 89.2695
C=CC(=O)N(C)CC(=O)NCc1nc2cc(C)ccc2n1C [2-B14, N-({[(1,5-dimethyl-1H-1,3-benzodiazol-2-yl)methyl]carbamoyl}methyl)-N-methylprop-2-enamide] | 85.2552
C=CC(=O)N1CCC(n2cnc3ccccc3c2=O)C1 (stereo not shown) [3-C03, 3-[1-(prop-2-enoyl)pyrrolidin-3-yl]-3,4-dihydroquinazolin-4-one] | 122.437
N#CC(=Cc1ccccc1)C(=O)NCc1ccc(F)cc1 [8-P10, 2-cyano-N-[(4-fluorophenyl)methyl]-3-phenylprop-2-enamide] | 74.5751
CCn1nc(C)c(C=C(C#N)C(=O)Nc2ccccc2Cl)c1C [9-F07, N-(2-chlorophenyl)-2-cyano-3-(1-ethyl-3,5-dimethyl-1H-pyrazol-4-yl)prop-2-enamide] | 87.2196
C=CC(=O)Nc1ccccc1CCSC [1-A19, N-{2-[2-(methylsulfanyl)ethyl]phenyl}prop-2-enamide] | 86.846
C=CC(=O)N1CCC(Cc2ccnn2C)CC1 [2-C19, 1-{4-[(1-methyl-1H-pyrazol-5-yl)methyl]piperidin-1-yl}prop-2-en-1-one] | 93.747
C=CC(=O)N(C)Cc1c(C)nn(C)c1Cl [1-C15, N-[(5-chloro-1,3-dimethyl-1H-pyrazol-4-yl)methyl]-N-methylprop-2-enamide] | 89.3871
C=CC(=O)N1CCN(C(=O)c2ccc(OC)c(OC)c2OC)CC1 [1-H12, 1-[4-(2,3,4-trimethoxybenzoyl)piperazin-1-yl]prop-2-en-1-one] | 105.25
CCC(NC(=O)CCl)c1ccc(Cl)cc1 (stereo not shown) [6-O10, 2-chloro-N-[1-(4-chlorophenyl)propyl]acetamide] | 91.7623

Compound | % of control remaining [%]
C=CC(=O)N1CCC(C(=O)NCc2nc(C)c(C)s2)CC1 [3-B12, N-[(4,5-dimethyl-1,3-thiazol-2-yl)methyl]-1-(prop-2-enoyl)piperidine-4-carboxamide] | 104.087
N#CC(=CC=Cc1ccccc1[N+](=O)[O-])C(N)=O [8-F19, 2-cyano-5-(2-nitrophenyl)penta-2,4-dienamide] | 73.8953
C=CC(=O)NCc1cnc(C)n1-c1ccccc1 [2-F19, N-[(2-methyl-1-phenyl-1H-imidazol-5-yl)methyl]prop-2-enamide] | 94.6734
CCOc1ccc(NC(=O)C(C)Cl)cc1 (stereo not shown) [6-O09, 2-chloro-N-(4-ethoxyphenyl)propanamide] | 88.5771
C=CC(=O)N(C[C@H]1CCCO1)C1CCC(CC)CC1 (stereo partly drawn) [1-D03, N-(4-ethylcyclohexyl)-N-{[(2R)-oxolan-2-yl]methyl}prop-2-enamide] | 102.691
C=CC(=O)N1CCC[C@H]1Cn1cc(C2CC2)nn1 [1-L18, 1-[(2S)-2-[(4-cyclopropyl-1H-1,2,3-triazol-1-yl)methyl]pyrrolidin-1-yl]prop-2-en-1-one] | 107.704
CCc1ccc(NC(=O)C(C#N)=Cc2ccc(F)c(C#N)c2)cc1 [8-M20, 2-cyano-3-(3-cyano-4-fluorophenyl)-N-(4-ethylphenyl)prop-2-enamide] | 63.6982
Cc1cccc(N(Cc2ccccc2)C(=O)CCl)c1 [6-O07, N-benzyl-2-chloro-N-(3-methylphenyl)acetamide] | 92.2173
Cc1cc(-n2c(C)cc(C(=O)CCl)c2C)no1 [10-C18, 2-chloro-1-[2,5-dimethyl-1-(5-methyl-1,2-oxazol-3-yl)-1H-pyrrol-3-yl]ethan-1-one] | 106.137
O=C(CCl)c1ccc(C(F)(F)F)cc1 [10-B10, 2-chloro-1-[4-(trifluoromethyl)phenyl]ethan-1-one] | 79.174
Cc1ccc(NC(=O)C(C#N)=Cc2cccc([N+](=O)[O-])c2)cc1 [8-J17, 2-cyano-N-(4-methylphenyl)-3-(3-nitrophenyl)prop-2-enamide] | 70.9041
C=CCNC(=O)C(C#N)=Cc1cccc(O)c1 [9-B09, 2-cyano-3-(3-hydroxyphenyl)-N-(prop-2-en-1-yl)prop-2-enamide] | 85.9959
C=CC(=O)Nc1ccc(Cl)cc1F [1-I10, N-(4-chloro-2-fluorophenyl)prop-2-enamide] | 88.0419
CCCCNC(=O)C(C#N)=Cc1ccc(F)cc1 [9-P13, N-butyl-2-cyano-3-(4-fluorophenyl)prop-2-enamide] | 87.2196
N#CC(=Cc1cc(F)ccc1F)C(=O)Nc1ccc(Cl)cc1Cl [8-O08, 2-cyano-N-(2,4-dichlorophenyl)-3-(2,5-difluorophenyl)prop-2-enamide] | 74.847
C=CC(=O)NCc1nonc1C [2-H07, N-[(4-methyl-1,2,5-oxadiazol-3-yl)methyl]prop-2-enamide] | 91.1223
CC(Cl)C(=O)NCc1cnc(N2CCOCC2)s1 (stereo not shown) [6-P05, 2-chloro-N-{[2-(morpholin-4-yl)-1,3-thiazol-5-yl]methyl}propanamide] | 102.531
CC(Cl)C(=O)NC(C)C(=O)Nc1ccc(-n2cncn2)cc1 (stereo not shown) [7-P07, 2-chloro-N-(1-{[4-(1H-1,2,4-triazol-1-yl)phenyl]carbamoyl}ethyl)propanamide] | 79.9604
C=CC(=O)NCCC(=O)Nc1c(C)c(C)nn1C [2-G12, N-{2-[(1,3,4-trimethyl-1H-pyrazol-5-yl)carbamoyl]ethyl}prop-2-enamide] | 77.3811
CCOc1ccc(NC(=O)CCl)cc1S(=O)(=O)N1CCCC1 [4-J16, 2-chloro-N-[4-ethoxy-3-(pyrrolidine-1-sulfonyl)phenyl]acetamide] | 105.586
CCS(=O)(=O)N1CCc2cc(C(=O)CCl)ccc21 [10-E18, 2-chloro-1-[1-(ethanesulfonyl)-2,3-dihydro-1H-indol-5-yl]ethan-1-one] | 27.8979
C=CC(=O)N1CCC(C(=O)NC(C)CC2CC2)CC1 (stereo not shown) [3-M05, N-(1-cyclopropylpropan-2-yl)-1-(prop-2-enoyl)piperidine-4-carboxamide] | 99.853
N#CC(=Cc1ccc(-c2ccccc2)cc1)C(=O)N1CCCC1 [9-B08, 3-{[1,1'-biphenyl]-4-yl}-2-(pyrrolidine-1-carbonyl)prop-2-enenitrile] | 81.7811
